PubChem BioAssay AID1508623 (National Center for Advancing Translational Sciences (NCATS), 2021)
In all, about 48,000 compounds went through this assay and about 450 (0.94%) were called active. Not shown: some 19% with an inconclusive outcome. The call rests on the fitted dose curve; in most records, active means well fitted inhibition curve with a large enough effect; inconclusive means small, poorly fitted or top-dose-only effect; inactive means no such curve, though single readings can be large or run the other way. The list shows a part of the results.

Test: Primary qHTS for Identification of Small Molecule Inhibitors of Huntingtin Promoter Activity; further: nearly all actives have a fitted effect of over 50% in size
Settings: HEK293 HTT promoter firefly luciferase reporter (activity 0% = vehicle and -100% = no light), 24 h; series mostly up to 57.5 µM; activity change, negative = inhibition: at the top concentration
Outline: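 HEK293 Fluc reporter, 2,500 cells/well, 24 h pre-culture; cpds up to 57.5 uM final, 24 h 37 degrees C; Dual-Glo, 10 min RT; normalized vehicle = 0%, zero RLU = -100%.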
With `CSc1nc(Nc2ccc(C)cc2)c(C#N)c(-c2ccccc2)n1` the “activity change, negative = inhibition” value was inactive: -12.9%.
In the case of `Cc1ccc(CSc2ncc(Cl)c(C(=O)Nc3nc4ccc(C)cc4s3)n2)cc1`, the “activity change, negative = inhibition” value is reported as inactive: 0.872%.
For `Oc1c(C(c2ccccc2)N2CCN(c3cccc(Cl)c3)CC2)sc2nc(-c3ccco3)nn12` (centres undefined), the “activity change, negative = inhibition” value was inactive: -24.5%.
With `O=c1c(=O)n(-c2ccccc2)ccn1Cc1cccc(C(F)(F)F)c1` the “activity change, negative = inhibition” value was inactive: -26.3%.
In the case of `Cc1ccc(NC(=O)c2cc3nc(-c4ccc5c(c4)OCO5)cc(C(F)(F)F)n3n2)cc1Cl`, the “activity change, negative = inhibition” value is reported as inactive: 1.23%.
With `COc1ccccc1CNS(=O)(=O)c1cc(Br)cc2c1N(C(C)=O)C(C)C2` (centres undefined) the “activity change, negative = inhibition” value was inactive: -23.7%.
In the case of `O=C1COc2ccc(-c3cc(-c4ccc(F)cc4)c4c(n3)-c3cc(Cl)ccc3OC4)cc2N1`, the “activity change, negative = inhibition” value is reported as inactive: -8.12%.
For `Cc1c(C(=O)Nc2ccccc2Cl)sc2ncnc(N(C)C3CCCCC3)c12`, the “activity change, negative = inhibition” value was inactive: -18.6%.
For `COc1cc(Cl)c(NC(=O)c2cc(CN3CCCC3)on2)c(OC)c1`, the “activity change, negative = inhibition” value was inactive: -8%.
In the case of `Cc1ccc(N2CC(c3nnc(Cc4ccc(F)cc4)o3)CC2=O)cc1` (centres undefined), the “activity change, negative = inhibition” value is reported as inactive: -11.8%.
With `COc1ccc(Cn2ccnc2SCC(=O)NC2CCCC2)cc1` the “activity change, negative = inhibition” value was inactive: -24%.
In the case of `CC(CCc1ccccc1)NC(=O)Cn1c(=O)nc(-c2ccccc2F)c2cc(Cl)ccc21` (centres undefined), the “activity change, negative = inhibition” value is reported as inactive: -21.6%.
For `Cc1oc(-c2ccccc2F)nc1CSCC(=O)NCc1ccccc1`, the “activity change, negative = inhibition” value was inactive: -23%.
With `COc1ccc2c(c1)CC(C(=O)Nc1cccc(C)c1C)CO2` (centres undefined) the “activity change, negative = inhibition” value was inactive: -19.4%.
For `COC(=O)c1ccc(NS(=O)(=O)c2c(C)nc3sccn3c2=O)cc1`, the “activity change, negative = inhibition” value was inactive: -29.1%.
With `CCOC(=O)Cn1c(=O)n(C2CCCCC2)c2nc(-c3ccc(OCC)cc3)nc(C(N)=O)c21` the “activity change, negative = inhibition” value was inactive: -9.47%.
In the case of `COc1ccc(C2CC(=O)c3cnc4c(-c5ccccc5)c(C)nn4c3C2)cc1OC` (centres undefined), the “activity change, negative = inhibition” value is reported as inactive: -28.2%.
With `Cc1c(-c2cccc(NC(=O)c3ccc(F)c(F)c3)c2)nc2ncccn12` the “activity change, negative = inhibition” value was inactive: -2.18%.
With `Cc1nn(C)c2c1c(C(F)(F)F)cc(=O)n2C(C)C(=O)NCCc1ccc(Cl)cc1` (centres undefined) the “activity change, negative = inhibition” value was inactive: 0%.
For `Cc1ccc(Oc2coc3cc(OCC(=O)NC4CCCCC4)ccc3c2=O)cc1`, the “activity change, negative = inhibition” value was inactive: -16.4%.
For `N#Cc1ccc(C(=O)Nc2ccccc2-c2nc3ccccc3s2)c(F)c1`, the “activity change, negative = inhibition” value was inactive: 10.4%.
For `COc1ccc(OCc2ccc(-c3nc(C#N)c(NCc4ccccc4)o3)o2)cc1`, the “activity change, negative = inhibition” value was inactive: 24.3%.
For `CNS(=O)(=O)c1ccc(NC(=O)c2cnn3c(C(F)F)cc(-c4ccccc4)nc23)cc1`, the “activity change, negative = inhibition” value was inactive: -2.53%.
In the case of `CCOC(=O)c1cnc2c(Cl)c(Cl)ccc2c1NCCN1CCOCC1`, the “activity change, negative = inhibition” value is reported as inactive: -15.6%.
For `O=c1c(-c2ccc(O)cc2)coc2cc(O[C@@H]3O[C@H](CO)[C@H](O)[C@H](O)[C@H]3O)ccc12`, the “activity change, negative = inhibition” value was inactive: 28.3%.
With `CCOc1ccc(C2C(C(=O)OC)=C(C)NC3=C2C(=O)c2ccccc23)cc1OC` (centres undefined) the “activity change, negative = inhibition” value was inactive: -16.2%.
For `O=C(Nc1ccc(F)cc1Cl)C1CCN(c2ncnc3c2nc2n3CCCCC2)CC1`, the “activity change, negative = inhibition” value was inactive: -12%.
For `CN(C1CCCCC1)S(=O)(=O)c1ccc2c(c1)c(=O)c(C(=O)NCc1ccccc1Cl)cn2C`, the activity change, negative = inhibition was inactive: -7.18% [at 11.5 µM].
For `c1ccc(C(O[C@H]2CCCN(CCc3ccc4c(c3)OCO4)C2)c2ccccc2)cc1`, the “activity change, negative = inhibition” value was inactive: 0.752%.
In the case of `Cc1ccc2onc(CNC(=O)Nc3ccccc3C#N)c2c1`, the “activity change, negative = inhibition” value is reported as inactive: -10.3%.
In the case of `COc1cccc(CNC(=O)CCc2c(C)nc3c(c2C)c(=O)n(C)c(=O)n3C)c1`, the “activity change, negative = inhibition” value is reported as inactive: -3.29%.
With `CCc1ccccc1NC(=O)CSc1ncccc1C(=O)O` the “activity change, negative = inhibition” value was inactive: -5.72%.
For `COc1ccc(Nc2ncnc3c2c(-c2ccccc2)cn3-c2ccc(C)c(Cl)c2)cc1OC`, the “activity change, negative = inhibition” value was inactive: 0.741%.
For `Cc1cccc(NC(=O)CSC2=Nc3ccccc3C3=NC(CCC(=O)NCc4ccc(F)cc4)C(=O)N23)c1` (centres undefined), the “activity change, negative = inhibition” value was inactive: -10.6%.
With `CC(=O)c1ccc(NS(=O)(=O)c2cnc(N)nc2)cc1` the “activity change, negative = inhibition” value was inactive: 3.49%.
With `CC(=O)c1cccc(Nc2ncnc3c2cnn3C)c1` the “activity change, negative = inhibition” value was inactive: -8.13%.
With `CCOc1ccccc1NC(=O)Cc1csc(COc2cccc(C)c2)n1` the “activity change, negative = inhibition” value was inactive: -24.7%.
For `Cc1ccc(-n2c3c(c(=O)[nH]c2=O)C(NS(=O)(=O)c2ccc(C)cc2)(C(F)(F)F)C(=O)N3)cc1` (centres undefined), the “activity change, negative = inhibition” value was inactive: -12.3%.
In the case of `CCOc1ccc(CN2C(=O)c3ccccc3Sc3ccc(C(=O)NCCc4ccccc4)cc32)cc1`, the “activity change, negative = inhibition” value is reported as inactive: -10.8%.
In the case of `COc1ccc2[nH]cc(CCNC(=O)Nc3cccc(F)c3)c2c1`, the “activity change, negative = inhibition” value is reported as inactive: -3.54%.
In the case of `CCOc1ccccc1NC(=O)c1cc2cc(C)ccc2n1C`, the “activity change, negative = inhibition” value is reported as inactive: -13.9%.
With `COc1cccc(CNC(=O)c2ccc3c(c2)N(C)C(=O)C2CCCCN32)c1` (centres undefined) the “activity change, negative = inhibition” value was inactive: -13.8%.
For `CCc1ccc(NC(=O)C2CCC(CNS(=O)(=O)c3cccs3)CC2)cc1` (centres undefined), the “activity change, negative = inhibition” value was inactive: 11.4%.
For `COc1ccccc1NC(=O)C1=C(C)Nc2nc(-c3ccco3)nn2C1c1ccccc1` (centres undefined), the “activity change, negative = inhibition” value was inactive: -17.8%.
With `Cc1ccccc1NC(=O)c1c(NC(=O)c2ccncc2)sc2c1CCC(C(C)(C)C)C2` (centres undefined) the “activity change, negative = inhibition” value was inactive: -21.2%.
For `COc1ccc(Nc2nc3c(S(=O)(=O)c4ccc(Br)cc4)nnn3c3ccsc23)c(OC)c1`, the “activity change, negative = inhibition” value was inactive: -0.569%.
With `CC1CCN(c2cc3c(cc2F)c(=O)c(S(=O)(=O)c2ccc(Cl)cc2)cn3C)CC1` the “activity change, negative = inhibition” value was inactive: -4.83%.
For `CNS(=O)(=O)c1cc(-c2nn3c(C)nnc3c3ccccc23)ccc1C`, the “activity change, negative = inhibition” value was inactive: 49.5%.
For `CCOC(=O)c1c(NC(=O)c2cc(-c3ccc(Cl)cc3)on2)sc2c1CCCC2`, the “activity change, negative = inhibition” value was inactive: -3.23%.
